For this test, the system named is 565232-114-T-J1-PDC complex spheroid viability. Kind of test: Anticancer human tumor 565232-114-T-J1-PDC patient-derived bladder carcinoma cell line growth inhibition [CLK]. The following applies: stronger effect = lower value. From the text:
A high-throughput screen of multi-cell type tumor spheroids was designed to identify active combinations of […] and targeted small molecules. Complex spheroids include a stromal component modeled by human endothelial cells (HUVEC) and fibroblasts modeled by human mesenchymal stem cells (MSCs). The concentration ranges selected for each drug and investigational agent were based upon clinically achievable concentrations if the clinical Cmax of the agent was known.
Compounds. The drugs and investigational agents: cirtuvivint (SM08502; NSC835563), CC-671 (NSC850746), vemurafenib (NSC761431), tapotoclax (NSC804041), sotorasib (NSC818433), adagrasib (NSC831453), MRTX-1133 (NSC836407), BAY2416964 (NSC825713), copanlisib (NSC816437), inavolisib (NSC800729), abemaciclib (NSC768073), osimertinib (NSC779217), entinostat (NSC756642), eltanexor (KPT-8602, NSC794443), venetoclax (NSC766270), ceralasertib (NSC777638), bortezomib (NSC756655), olaparib (NSC753686), talazoparib (NSC767125), alisertib (NSC759677), peposertib (NSC802822), gemcitabine (NSC613327), 5-fluorouracil (NSC19893), SN-38 (NSC673596), oxaliplatin (NSC266046), paclitaxel (NSC125973), and doxorubicin (NSC123127), were obtained from the National Cancer Institute (NCI) Developmental Therapeutics Program Chemical Repository. […] If the clinical Cmax for an agent had not been determined, the highest concentration tested was 10 microM. […]

Certain results were filed several times, with different values. The list is limited to them. There may be further records. Values that stand side by side repeat one measurement (runs, samples, wells, individuals or studies). Marks such as (2×) give the number of equal values in this list. Marks such as [2022-09] give the month of the run.
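Note: spheroids exposed to compounds for 7 days before readout; 100% = DMSO vehicle wells with luminescence normalized to vehicle control.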

`CCc1c2c(nc3ccc(O)cc13)-c1cc3c(c(=O)n1C2)COC(=O)[C@]3(O)CC`: for the setting “compound alone 0.1 µM”, the viability, T/C is 41.9% [2023-07] and 9.93% [2023-08].

With `CNC(=O)c1ccc(Nc2nc(OC3CCCC3)c3c(-c4ccc5nc(C)oc5c4)c[nH]c3n2)c(OC)c1`, under “compound alone 0.0316 µM”, the viability, T/C was 100 (2×), 92.6, 91.5, 90.4, 84.1, 86.3, 111, 84.5, 89.3, 94.4, 87.3%.

These data come from PubChem BioAssay AID2060612 (Molecular Pharmacology Branch, DTP, NCI, 2025).
